# Measured values taken from PubChem BioAssay AID1240 (Sanford-Burnham Center for Chemical Genomics, 2008).
# About 800 (1.6%) of roughly 50,000 compounds showed an effect of 50% or more. The list shows a part of the results.
# Biological target: Bcl-2-like protein 10 (Homo sapiens) (UniProt Q9HD36)
# Experiment: Phenotype converters, Bcl-B/TR3 peptide binding displacement, primary biochemical FP (AID 1240);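 also: 0% = Bcl-B with tracer peptide and DMSO and 100% = tracer peptide lacking Bcl-B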
# Conditions: GST-Bcl-B / FITC-TR3 peptide fluorescence polarization; stronger effect = higher value; compound at 3.75 mg/L
# Chain of UniProt Q9HD36 (Q9HD36 whole entry, looked up): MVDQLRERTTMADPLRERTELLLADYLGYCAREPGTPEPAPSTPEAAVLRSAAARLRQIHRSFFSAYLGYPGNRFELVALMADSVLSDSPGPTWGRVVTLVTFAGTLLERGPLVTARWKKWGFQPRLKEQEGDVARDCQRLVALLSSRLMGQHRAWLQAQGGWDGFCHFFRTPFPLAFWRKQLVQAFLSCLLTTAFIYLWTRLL
row,Compound,displacement
1,O=C(CSc1nc2ccccc2s1)N/N=C/c1cccc2ccccc12,19.7%
2,Cc1ccc2c(Cl)c(C(=O)NC34CC5CC(CC(C5)C3)C4)sc2c1,-6.3%
3,O=C(Nc1ccc(I)cc1Cl)c1ccc(-c2ccccc2)cc1,-5.6%
4,O=C(COc1ccc2ccccc2c1)NCc1ccccn1,-0.7%
5,CC(=O)C1=C(C)NC(C)=C(C(C)=O)C1c1cn(-c2ccccc2)nc1-c1cccs1,6.8%
6,COC(=O)c1ccc2c(c1)C1C=CCC1C(c1cccc3ccccc13)N2 (stereo not drawn),-0.3%
7,COc1cc(C(=O)Nc2cc(C(F)(F)F)ccc2Cl)cc(OC)c1OC,4.6%
8,CCOC(=O)c1c(C)nc(C)c(C(=O)OCC)c1-c1ccccc1,3.7%
9,O=C(COc1ccc2c(c1)oc(=O)c1ccccc12)c1ccccc1,19.5%
10,Cc1cc(C)cc(N2C(=O)NC(=O)/C(=C\c3cc(Br)ccc3OCC(=O)O)C2=O)c1,-7.4%
11,Cc1ccc(NCCC(=O)c2ccc(C)o2)cc1,14.9%
12,Cc1cccc(C)c1-n1c(C)cc(/C=N/NC(=O)c2ccncc2)c1C,-13.1%
13,Cc1cccc(-c2nc3sc4c(c3c(=O)o2)CCCCC4)c1,-11.4%
14,O=C(/C=C/c1ccc(Cl)cc1)NCC1CCCO1 (stereo not drawn),-2.4%
15,CCc1ccc(C2C(C(=O)OCCc3ccccc3)=C(C)NC3=C2C(=O)CCC3)cc1 (stereo not drawn),-9%
16,Cc1cc2nc(-c3cc(NC(=O)COc4ccc([N+](=O)[O-])cc4)ccc3O)oc2cc1C,0.2%
17,O=C(O)c1cccc2c(Br)ccc(C(=O)O)c12,0.1%
18,O=C(CSc1nnc(-c2ccco2)n1-c1ccccc1)CSc1nnc(-c2ccco2)n1-c1ccccc1,15.9%
19,CCOCCOC(=O)C1=C(C)N(C)C(=O)NC1c1ccc(OCc2ccccc2)cc1 (stereo not drawn),2.2%
20,C/C(=N/NC(=O)COc1cccc(Cl)c1)c1ccccc1O,9.1%
21,O=C(/C=C/c1ccccc1)NCCSCc1ccccc1Cl,-2.7%
22,O=c1c2c(nc3cc(-c4cccs4)[nH]n13)CCCC2,20.5%
23,CCOc1ccc(NC(=S)NC(NC(=O)Cc2cccc3ccccc23)C(Cl)(Cl)Cl)cc1 (stereo not drawn),9.2%

row,Compound,displacement
1,Cc1ccc(OCC(=O)N/N=C\c2ccco2)cc1,7.8%
2,CCCCOC(=O)C1=C(C)NC2=C(C(=O)CCC2)C1c1cccc(C(F)(F)F)c1 (stereo not drawn),-3.1%
3,CCOc1cc(C(=O)N2CCN(C)CC2)cc(OCC)c1OCC,0.4%
4,O=[N+]([O-])c1ccc(N2CCCC2)cc1Sc1cccc2cccnc12,3.9%
5,CN(C)c1ccc(C(=O)N2CCN(c3ccc([N+](=O)[O-])cc3)CC2)cc1,11.9%
6,CCOC(=O)c1c(C)oc2ccc(NS(=O)(=O)c3cc(C)ccc3C)cc12,-0.8%
7,CC(NC(=O)c1cccc(Cl)c1)c1ccccc1 (stereo not drawn),-5.3%
8,COc1ccccc1C(=O)O/C(=C/c1nc2ccccc2n1C)c1ccccc1OC,9.4%
9,COc1cccc(NC(=O)c2ccc(OC)c([N+](=O)[O-])c2)c1,1.1%
10,Cc1nc(-c2cccc([N+](=O)[O-])c2)cs1,17.5%
11,COc1ccc(CCN2C(=O)CC(Cc3ccccc3)C2=O)cc1OC (stereo not drawn),0.4%
12,COc1ccc(OC)c(/C=C2\C(=O)NN(c3ccc(Cl)c(Cl)c3)C2=O)c1,15%
13,CCCc1nc2ccccc2n1CC(O)COc1ccc(I)cc1 (stereo not drawn),-4.5%
14,O=C(/C=C/c1cc(Br)cs1)Nc1cccc2cccnc12,10.6%
15,COc1ccc(NC(=O)c2ccc(C3SCC(=O)N3Cc3ccccc3)cc2)cc1 (stereo not drawn),-4%
16,CCC(=O)NC(=O)NC(Cc1ccccc1)Cc1ccccc1,2.2%
17,O=C(COc1nc2ccccc2s1)n1c2ccccc2c2ccccc21,12.7%
18,Cc1cccc(Cl)c1OCCCCn1ccnc1,-1.4%
19,O=C(Nc1ccc(-c2ccc(Cl)cc2)cc1)c1sc2ccccc2c1Cl,3%
20,Cc1ccc(-c2nc3ccc(Br)cc3c(C(=O)O)c2C)cc1,-2%
21,c1ccc(CCCN2CCN(C3CCCC3)CC2)cc1,-3.6%
22,O=C1NCC2=C1C(c1ccc(O)cc1)Nc1ccccc1N2 (stereo not drawn),-8.3%
23,O=C(C(c1ccccc1)c1ccccc1)N1CCN(Cc2ccc(F)cc2)CC1,-18.5%

row,Compound,displacement
1,C/C(CC(=O)N1CCCC1)=N\NC(=O)C(=O)Nc1ccccc1,-7.7%
2,Cc1ccc(C2(c3ccc(C)o3)C(=O)Nc3ccccc32)o1,22%
3,C=CCCCC(=O)Nc1nc2ccc(OCC)cc2s1,1.7%
4,CCC1(C)CC(CC(=O)O)(c2ccc(OC)cc2)CCO1 (stereo not drawn),-11.3%
5,COc1ccc(NS(=O)(=O)c2ccc(Br)cc2)cc1OC,2.2%
6,O=[N+]([O-])c1ccc(Cl)c(C2N(c3ccccc3)CCN2c2ccccc2)c1,-6.1%
7,COc1cc(/C=N/NC(=O)c2ccncc2)ccc1OC(=O)c1cc(OC)c(OC)c(OC)c1,10.8%
8,COc1ccc(C2Nc3ccccc3C(=O)N2c2ccccc2)cc1CN1C(=O)c2ccccc2C1=O (stereo not drawn),-11.6%
9,O=C(O/N=C/c1ccc([N+](=O)[O-])cc1)c1cccs1,12.4%
10,CC(C)Oc1ccc(C(=O)N2CCCc3ccccc32)cc1,-4.5%
11,O=C(Nc1ccccc1)Nc1nnc(COc2ccc(Cl)cc2)s1,15.6%
12,CN1CN=C2SC3(COC(c4cccc(Br)c4)OC3)C(=O)N2C1 (stereo not drawn),3.7%
13,O=C(c1ccc(F)cc1)N1CCN(Cc2ccc3c(c2)OCO3)CC1,-6.7%
14,CCN(CC)C1=NS(=O)(=O)c2ccccc21,13.6%
15,Cc1ccc(-c2nc3ccccn3c2NC(=O)c2ccc(Cl)cc2)cc1,8%
16,OC(CNCc1ccccc1)(c1ccccc1)c1ccc(Br)cc1 (stereo not drawn),-1.2%
17,COc1cc(C2Nc3cc(C)ccc3NC3=C2C(=O)CC(C)(C)C3)ccc1O (stereo not drawn),-24.1%
18,Brc1ccc(/C=N/N2CCN(Cc3cccc4ccccc34)CC2)s1,-11%
19,CCOC(=O)c1nnn(-c2nonc2N)c1-c1ccccc1,-0.3%
20,CC1(C)CC(=O)C=C(NCC2CCNCC2)C1,-8.4%
21,Cc1ccc(S(=O)(=O)NCc2ccco2)cc1[N+](=O)[O-],-8%
22,O=C(Nc1ccncc1)c1cc2nc(-c3cccs3)cc(C(F)(F)F)n2n1,3.7%
23,Cc1cc(C)cc(NC(=O)Cn2cc(C=O)c3ccccc32)c1,13.6%

row,Compound,displacement
1,O=C(NCCCc1ccccc1)C(F)(F)F,85.1%
2,O=C(/C=C/c1ccc2c(c1)OCO2)Nc1ncccn1,11.2%
3,Cc1cc(C)c(C)c(OCCCN2CCCC2)c1,6.3%
4,Cc1cccc(C2=N/C(=C\c3ccccc3OS(=O)(=O)c3ccccc3)C(=O)O2)c1,-2.2%
5,O=C(COC(=O)c1ccc(S(=O)(=O)NCc2ccco2)cc1)c1ccc(Cl)cc1,-1.7%
6,O=C1S/C(=C/c2ccc(O)c(O)c2)C(=O)N1c1ccccc1,-0.3%
7,Cc1cc(OCCN2CCCC2)ccc1Cl,-2.8%
8,Cc1ccc(/C=N/NC(=O)C2CC(=O)N(c3ccccc3)C2)cc1 (stereo not drawn),-3.6%
9,COc1ccc(OC)c(/C=C/C(=O)Nc2cc(OC)ccc2OC)c1,3.8%
10,Cc1ccc(N2C(=O)NC(=O)/C(=C/c3cccc(F)c3)C2=O)cc1,3%
11,CCC(C)OC(=O)C1=C(C)NC2=C(C(=O)CCC2)C1c1ccc(OC)c(OCc2ccccc2)c1 (stereo not drawn),2.4%
12,COc1ccccc1CC1CC(=O)N(c2cccc(Cl)c2C)C1=O (stereo not drawn),-1.7%
13,Cc1ccc(NC(=O)n2ccc(C(=O)N3CCOCC3)n2)cc1,9.7%
14,Cc1ccc(C)c(NC(=S)Nc2ccc(F)cc2)c1,-6%
15,C=CCNC(=O)C(=O)Nc1ccc(C)cc1,10.1%
16,Cc1nnc(Oc2ccc([N+](=O)[O-])cc2)c2ccccc12,-12%
17,O=C(NCC1CCN(C(=O)c2ccc(Cl)c(Cl)c2)CC1)c1ccc(Cl)c(Cl)c1,3.8%
18,O=C1C(=Cc2ccc(Sc3ccccc3)o2)C(=O)c2ccccc21,163%
19,Cc1cccc(NC(=O)c2cc([N+](=O)[O-])ccc2Cl)c1Cl,-8.5%
20,Cc1cccc(NC(=O)CC2SC(N)=NC2=O)c1C (stereo not drawn),-4.7%
21,Cc1ccc(C2(C)CC(C)(C)N(C(=O)C3CCCO3)c3ccccc32)cc1 (stereo not drawn),9.1%
22,O=C(NCc1ccc2c(c1)OCO2)C(Cl)Cl,-3.7%
23,CCOC(=O)Cc1nnc(Nc2ccc(C)cc2C)c2ccccc12,4.6%

row,Compound,displacement
1,COC(=O)c1ccccc1NC(=O)c1cc(Cl)ccc1Cl,3.9%
2,Cc1ccc(S(=O)(=O)Oc2ccccc2/C=C2\SC(=S)NC2=O)cc1,5.2%
3,Cc1cccc(C)c1NC(=O)c1cc2c(C)nn(-c3ccccc3)c2s1,-17%
4,CC(NC(=O)CSc1nc2sc3c(c2c(=O)n1-c1ccccc1)CCCC3)c1ccccc1 (stereo not drawn),8.1%
5,COc1ccc(CNC(=O)C(=O)NCc2ccc(Cl)cc2)cc1,13.2%
6,CCOC(=O)COc1cc(Br)c(C2Nc3ccc4ccccc4c3C3=C2C(=O)CC(C)(C)C3)cc1OC (stereo not drawn),-8.4%
7,O=C(NC(NC(=S)Nc1ccc(Cl)cc1)C(Cl)(Cl)Cl)c1ccccc1F (stereo not drawn),10.3%
8,O=C(Nc1ccc(Cl)cc1)Nc1ccc(S(=O)(=O)N2CCc3ccccc32)cc1,-5.3%
9,CC(=O)c1ccccc1NC(=O)c1ccccc1Br,-6.8%
10,O=C(O)C(Cc1ccccc1)N1C(=O)/C(=C/c2ccc(Br)cc2)SC1=S (stereo not drawn),11.6%
11,CC(=O)c1ccc(Oc2cc(-c3ccccc3)nc(C)n2)cc1,-9.7%
12,Oc1cccc(Nc2nc(-c3ccccn3)cs2)c1,7.9%
13,CCSc1nnc(NC(=O)C(C)(C)C)s1,-5.7%
14,Cc1ccc(C)c(NC(=O)c2cncc(Br)c2)c1,9.7%
15,C=CCN(CC=C)C(=O)COc1ccc(Cl)cc1,-5.1%
16,CC(=O)N(C1=C(N2CCOCC2)C(=O)c2ccccc2C1=O)c1ccccc1,2.9%
17,COC(=O)c1ccc(N2C(=O)C3C4C=CC(C4=C(c4ccccc4)c4ccccc4)C3C2=O)cc1 (stereo not drawn),4.4%
18,O=C(CSc1nc2ccccc2[nH]1)Nc1cc(Cl)ccc1Cl,11.1%
19,CCOC(=O)c1ccc(NC(=S)NC(=O)c2ccco2)cc1,12.6%
20,CCOc1ccccc1NC(=O)C(=O)NCc1ccc(Cl)cc1,13.1%
21,COc1ccc(OCC(O)CN(C)S(=O)(=O)O)cc1 (stereo not drawn),-6.7%
